In PubChem BioAssay AID2202238 (Ras Initiative Chemistry Research Team, Frederick National …, 2025):
This is one part of the list. These are further read-outs of the screen, such as a control signal, another cell line or another target. No call is given for them.

Molecular target: GTPase KRas (Homo sapiens) (UniProt P01116)
Assay: Cysteine mutants labelled by reactive fragments (mass read-out) (AID 2202238)
Parameters: protein at 5 µM with 500 µM competing thiol for 1.5 h
Conditions: KRAS G12D cysteine mutants, disulfide tethering, MALDI-TOF labeling, stronger effect = higher value, fragment at 500 µM
[1] = measured here: G60C mutant labeling
[2] = measured here: G75C mutant labeling
[3] = measured here: H94C mutant labeling
[4] = measured here: I36C mutant labeling
[5] = measured here: L120C mutant labeling
[6] = measured here: M67C mutant labeling
[7] = measured here: M72C mutant labeling
[8] = measured here: N26C mutant labeling
[9] = measured here: N86C mutant labeling
[10] = measured here: P121C mutant labeling
[11] = measured here: S122C mutant labeling
[12] = measured here: S136C mutant labeling

UniProt P01116, sequence (P01116 whole entry, looked up, the tested form may be a part): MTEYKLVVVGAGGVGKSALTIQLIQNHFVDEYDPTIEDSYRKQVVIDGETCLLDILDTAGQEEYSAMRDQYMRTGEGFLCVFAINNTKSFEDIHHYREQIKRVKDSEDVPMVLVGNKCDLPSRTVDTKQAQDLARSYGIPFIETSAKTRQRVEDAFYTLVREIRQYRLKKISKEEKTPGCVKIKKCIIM

| Compound | percent labeling [1] [%] | percent labeling [2] [%] | percent labeling [3] [%] | percent labeling [4] [%] | percent labeling [5] [%] | percent labeling [6] [%] | percent labeling [7] [%] | percent labeling [8] [%] | percent labeling [9] [%] | percent labeling [10] [%] | percent labeling [11] [%] | percent labeling [12] [%] |
| --- | --- | --- | --- | --- | --- | --- | --- | --- | --- | --- | --- | --- |
| CC(C)C(=O)Nc1ccc(C(=O)NCCS)cc1 | 12.6 | 10.7 | 18.4 | 16.5 | 18.4 | 15.4 | 23.8 | 33.2 | 17.1 | 15.7 | 12.1 | 29.4 |
| Cn1ncc(NC(=O)CCS)c1-c1ccc(F)cc1F |  | 16.6 | 50 | 41.5 | 29.5 | 43.4 | 30.8 |  | 31.3 | 34.5 | 30.7 | 57.8 |
| CCNC(=O)Cn1cc(-c2cccc(NC(=O)CCS)c2)cn1 |  | 5.6 | 31 | 25.9 | 15.8 | 17 | 32 |  | 23.5 | 12.3 | 14.6 | 23.1 |
| CCC(C(=O)NCCS)n1nnc(-c2ccsc2)n1 (stereo not given) | 41.8 | 16.1 | 21.8 | 15.5 | 33.4 | 31 | 41.4 | 28.9 | 16.8 | 21.1 | 19.1 | 26.7 |
| CN(Cc1nc2ccsc2c(=O)[nH]1)C(=O)CCS |  | 11.6 | 38.6 | 41.8 | 39.9 | 40.3 | 35.8 |  | 32.6 | 46.1 | 40 | 61.3 |
| O=C(NCCS)c1cncc(-c2ccc(F)cc2)c1 | 24.6 | 10.5 | 12.8 | 12.5 | 14.9 | 15.1 | 44.9 | 32 | 10.4 | 17.1 | 10.6 | 22.2 |
| CC(C)(COCc1ccccc1)C(=O)NCCS | 35.6 | 15.3 | 28.4 | 14 | 31.6 | 25.6 | 25.2 | 25.7 | 5.3 | 22.4 | 17.9 | 31.6 |
| CC(C)Cn1ncc2cc(C(=O)NCCS)cnc21 | 26.8 | 14.4 | 21.2 | 18.7 | 21.2 | 23.9 | 37 | 41.9 | 18.7 | 17.9 | 19.5 | 40.2 |
| O=C(CCS)N1CCN(c2ncnc3c2oc2ccccc23)CC1 |  | 24.9 | 20.4 | 22.2 | 11.8 | 17.4 | 29.3 |  | 10.2 | 13.4 | 6.5 | 24 |
| O=C(CCS)NCC1(c2cccc(Cl)c2)CC1 |  | 14.7 | 32.3 | 30.3 | 30.2 | 30.9 | 41.4 |  | 16.8 | 23.9 | 22.2 | 45.1 |
| O=C(CCS)NCc1cc(OC2CCC2)ccn1 |  | 14.4 | 40.3 | 35.1 | 33.9 | 39.9 | 27.3 |  | 22.4 | 27.7 | 30.9 | 52.6 |
| O=C(CCS)NCc1cccc(OC(F)F)c1 |  | 13.9 | 37 | 39 | 33 | 31.6 | 41.5 |  | 30.1 | 32.8 | 29.4 | 52.8 |
| O=C(CCS)N1CCC(Oc2ccc3nccn3c2)CC1 |  | 27.4 | 36.1 | 47.3 | 39 | 49.7 | 35.1 |  | 22.1 | 36.2 | 31.8 | 53.4 |
